# In all, about 3,200 compounds went through this assay and about 300 (9.4%) showed activity. The list shows a part of the results, in another mix than the full data.
# Tested on: A673/TR/shEF
# Assay: cell viability (LOESS-normalised, relative to median of negative controls) (log2 ratio); higher = more viable cells (less compound effect), active = hit call of the paper (over 3 MAD below the median)
# Details: treatment time: 72 h
# Summary of the method: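 Doxycycline, present or absent from 24 h before compounds, was used to induce EWS-FLI1 shRNA knockdown in A673/TR/shEF Ewing sarcoma cells at 1,500 per well in 384-well plates. Cells then received library compounds at two or more concentrations, or DMSO controls, for three days. Viability was measured by CellTiter-Glo luminescence on an Envision reader, and per-plate LOESS correction, division by the negative-control median and log2 transformation followed.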
# [1] = 0.25 µM, library screen: screen1, EWS-FLI1 expression: high (no doxycycline)
# [2] = 0.25 µM, library screen: screen1, EWS-FLI1 expression: low (doxycycline-induced shRNA knockdown)
# [3] = 2.5 µM, library screen: screen1, EWS-FLI1 expression: high (no doxycycline)
# [4] = 2.5 µM, library screen: screen1, EWS-FLI1 expression: low (doxycycline-induced shRNA knockdown)
# [5] = 0.25 µM, library screen: screen2, EWS-FLI1 expression: high (no doxycycline)
# [6] = 0.25 µM, library screen: screen2, EWS-FLI1 expression: low (doxycycline-induced shRNA knockdown)
# [7] = 2.5 µM, library screen: screen2, EWS-FLI1 expression: high (no doxycycline)
# [8] = 2.5 µM, library screen: screen2, EWS-FLI1 expression: low (doxycycline-induced shRNA knockdown)
# [9] = 0.103 µM, library screen: screen3, EWS-FLI1 expression: high (no doxycycline)
# [10] = 0.103 µM, library screen: screen3, EWS-FLI1 expression: low (doxycycline-induced shRNA knockdown)
# [11] = 0.308 µM, library screen: screen3, EWS-FLI1 expression: high (no doxycycline)
# [12] = 0.308 µM, library screen: screen3, EWS-FLI1 expression: low (doxycycline-induced shRNA knockdown)
# [13] = 0.926 µM, library screen: screen3, EWS-FLI1 expression: high (no doxycycline)
# [14] = 0.926 µM, library screen: screen3, EWS-FLI1 expression: low (doxycycline-induced shRNA knockdown)
# [15] = 2.8 µM, library screen: screen3, EWS-FLI1 expression: high (no doxycycline)
# [16] = 2.8 µM, library screen: screen3, EWS-FLI1 expression: low (doxycycline-induced shRNA knockdown)
# [17] = 8.3 µM, library screen: screen3, EWS-FLI1 expression: high (no doxycycline)
# [18] = 8.3 µM, library screen: screen3, EWS-FLI1 expression: low (doxycycline-induced shRNA knockdown)
# [19] = 25 µM, library screen: screen3, EWS-FLI1 expression: high (no doxycycline)
# [20] = 25 µM, library screen: screen3, EWS-FLI1 expression: low (doxycycline-induced shRNA knockdown)
smiles,measurement,setting,value
CC(=O)NC(Cc1c[nH]c2ccccc12)C(=O)O (configuration not stated),cell viability (log2),[1],inactive: 0.0224
same,cell viability (log2),[2],inactive: 0.127
same,cell viability (log2),[3],inactive: 0.0949
same,cell viability (log2),[4],inactive: 0.156
CN(C)C(N)=NCCC[C@H](N)C(=O)O,cell viability (log2),[5],inactive: 0.185
same,cell viability (log2),[6],inactive: 0.151
same,cell viability (log2),[7],inactive: 0.186
same,cell viability (log2),[8],inactive: 0.199
C[C@@H](CN1CCC(Cc2ccccc2)CC1)[C@@H](O)c1ccc(O)cc1,cell viability (log2),[5],inactive: 0.1
same,cell viability (log2),[6],inactive: 0.0193
same,cell viability (log2),[7],inactive: 0.216
same,cell viability (log2),[8],inactive: 0.107
N[C@@H](Cc1cc(I)c(Oc2ccc(O)c(I)c2)c(I)c1)C(=O)O,cell viability (log2),[1],inactive: 0.0835
same,cell viability (log2),[2],inactive: 0.0286
same,cell viability (log2),[3],inactive: 0.137
same,cell viability (log2),[4],inactive: 0.123
Nc1c2ccccc2nc2ccccc12,cell viability (log2),[1],inactive: 0.0717
same,cell viability (log2),[2],inactive: 0.0455
same,cell viability (log2),[3],inactive: 0.156
same,cell viability (log2),[4],inactive: 0.158
CN1CCC(=C2c3ccccc3Sc3ccccc32)CC1,cell viability (log2),[1],inactive: 0.118
same,cell viability (log2),[2],inactive: 0.00102
same,cell viability (log2),[3],inactive: 0.16
same,cell viability (log2),[4],inactive: 0.11
CC(=O)O[C@H]1CC[C@@]2(C)C(=CC[C@H]3[C@@H]4CC[C@H]([C@H](C)CCCC(C)C)[C@@]4(C)CC[C@@H]32)C1,cell viability (log2),[1],inactive: 0.0694
same,cell viability (log2),[2],inactive: 0.0487
same,cell viability (log2),[3],inactive: 0.14
same,cell viability (log2),[4],inactive: 0.0189
Cc1ccc(=O)n(-c2ccccc2)c1,cell viability (log2),[5],inactive: 0.174
same,cell viability (log2),[6],inactive: 0.0832
same,cell viability (log2),[7],inactive: 0.119
same,cell viability (log2),[8],inactive: 0.0238
NO,cell viability (log2),[5],inactive: 0.0663
same,cell viability (log2),[6],inactive: 0.0637
same,cell viability (log2),[7],inactive: 0.0896
same,cell viability (log2),[8],inactive: 0.0443
Nc1nc(Cl)nc2c1ncn2[C@@H]1O[C@H](CO)[C@@H](O)[C@H]1O,cell viability (log2),[5],inactive: 0.323
same,cell viability (log2),[6],inactive: 0.0766
same,cell viability (log2),[7],inactive: 0.0971
same,cell viability (log2),[8],inactive: -0.0176
O=c1[nH]c2ccccc2n1CCCN1CCN(C(c2ccccc2)c2ccccc2)CC1,cell viability (log2),[5],inactive: 0.129
same,cell viability (log2),[6],inactive: 0.089
same,cell viability (log2),[7],inactive: 0.0833
same,cell viability (log2),[8],inactive: 0.142
C[C@@H]1C[C@H]2[C@@H]3CCC4=CC(=O)C=C[C@]4(C)[C@@]3(F)[C@@H](O)C[C@]2(C)[C@@]1(O)C(=O)COP(=O)(O)O,cell viability (log2),[1],inactive: 0.0323
same,cell viability (log2),[2],inactive: -0.0432
same,cell viability (log2),[3],inactive: 0.142
same,cell viability (log2),[4],inactive: -0.0599
Nc1cc(Cl)c(NC2=NCCN2)c(Cl)c1,cell viability (log2),[5],inactive: -0.0484
same,cell viability (log2),[6],inactive: 0.126
same,cell viability (log2),[7],inactive: -0.0109
same,cell viability (log2),[8],inactive: 0.0408
Cn1cnc([N+](=O)[O-])c1Sc1ncnc2nc[nH]c12,cell viability (log2),"0.025 µM, library screen: screen2, EWS-FLI1 expression: high (no doxycycline)",inactive: 0.138
same,cell viability (log2),"0.025 µM, library screen: screen2, EWS-FLI1 expression: low (doxycycline-induced shRNA knockdown)",inactive: 0.0997
same,cell viability (log2),[1],inactive: 0.0615
same,cell viability (log2),[2],inactive: 0.0765
same,cell viability (log2),[5],inactive: 0.159
same,cell viability (log2),[6],inactive: 0.0607
same,cell viability (log2),[3],inactive: -0.0254
same,cell viability (log2),[4],inactive: 0.161
same,cell viability (log2),[7],inactive: -0.0273
same,cell viability (log2),[8],inactive: 0.0557
same,cell viability (log2),"25 µM, library screen: screen2, EWS-FLI1 expression: high (no doxycycline)",active: -0.337
same,cell viability (log2),"25 µM, library screen: screen2, EWS-FLI1 expression: low (doxycycline-induced shRNA knockdown)",inactive: 0.03
COc1ccc(-c2oc3cc(O[C@@H]4O[C@H](CO)[C@@H](O)[C@H](O)[C@H]4O)c(OC)c(O)c3c(=O)c2OC)cc1O,cell viability (log2),[1],inactive: 0.0438
same,cell viability (log2),[2],inactive: 0.127
same,cell viability (log2),[3],inactive: 0.0949
same,cell viability (log2),[4],inactive: 0.0982
CC[C@H](CO)Nc1nc(NCc2ccccc2)c2ncn(C(C)C)c2n1,cell viability (log2),[7],active: -0.591
same,cell viability (log2),[8],active: -0.646
OCCN(CCO)c1nc(N2CCCCC2)c2nc(N(CCO)CCO)nc(N3CCCCC3)c2n1,cell viability (log2),[9],inactive: 0.0321
same,cell viability (log2),[10],inactive: -0.0336
same,cell viability (log2),[1],inactive: 0.146
same,cell viability (log2),[2],inactive: 0.0658
same,cell viability (log2),[5],inactive: 0.21
same,cell viability (log2),[6],inactive: 0.0699
same,cell viability (log2),[11],inactive: 0.126
same,cell viability (log2),[12],inactive: 0.0254
same,cell viability (log2),[13],inactive: 0.0443
same,cell viability (log2),[14],inactive: 0.0182
same,cell viability (log2),[3],inactive: 0.23
same,cell viability (log2),[4],inactive: 0.303
same,cell viability (log2),[7],inactive: 0.149
same,cell viability (log2),[8],inactive: 0.0237
same,cell viability (log2),[15],inactive: 0.122
same,cell viability (log2),[16],inactive: 0.0614
same,cell viability (log2),[17],inactive: 0.0362
same,cell viability (log2),[18],inactive: 0.00801
same,cell viability (log2),[19],inactive: 0.0527
same,cell viability (log2),[20],inactive: 0.00374
O=C(O)c1ccccc1C(=O)Nc1ccc(S(=O)(=O)Nc2nccs2)cc1,cell viability (log2),[1],inactive: 0.0438
same,cell viability (log2),[2],inactive: 0.0682
same,cell viability (log2),[3],inactive: 0.0569
same,cell viability (log2),[4],inactive: 0.121
O=c1onc2cnc3ccccc3n12,cell viability (log2),[5],inactive: 0.0859
same,cell viability (log2),[6],inactive: 0.147
same,cell viability (log2),[7],inactive: 0.139
same,cell viability (log2),[8],inactive: 0.0589
COc1ccc(CN2CCN(Cc3cc(OC)c(OC)c(OC)c3)CC2)cc1,cell viability (log2),[1],inactive: 0.174
same,cell viability (log2),[2],inactive: 0.0733
same,cell viability (log2),[3],inactive: 0.142
same,cell viability (log2),[4],inactive: -0.0868
C[C@]12CC[C@@H]3c4ccc(OC(=O)c5ccccc5)cc4CC[C@H]3[C@@H]1CC[C@@H]2O,cell viability (log2),[1],inactive: 0.00944
same,cell viability (log2),[2],inactive: 0.00898
same,cell viability (log2),[3],inactive: 0.189
same,cell viability (log2),[4],inactive: 0.15
COC(=O)[C@@H]1CC2=CC(=O)CC[C@]2(C)[C@@]23O[C@@H]2C[C@@]2(C)[C@@H](CC[C@@]24CCC(=O)O4)[C@H]13,cell viability (log2),[9],inactive: 0.089
same,cell viability (log2),[10],inactive: 0.0408
same,cell viability (log2),[11],inactive: 0.204
same,cell viability (log2),[12],inactive: 0.0537
same,cell viability (log2),[13],inactive: 0.086
same,cell viability (log2),[14],inactive: 0.0439
same,cell viability (log2),[15],inactive: 0.158
same,cell viability (log2),[16],inactive: 0.155
same,cell viability (log2),[17],inactive: 0.154
same,cell viability (log2),[18],inactive: 0.0848
same,cell viability (log2),[19],inactive: 0.101
same,cell viability (log2),[20],inactive: 0.11
CN1CCN(C(c2ccccc2)c2ccccc2)CC1,cell viability (log2),[1],inactive: 0.0799
same,cell viability (log2),[2],inactive: 0.0506
same,cell viability (log2),[3],inactive: 0.178
same,cell viability (log2),[4],inactive: 0.175

# From the supplement of paper PMC6089552
